Reference: the supplement of paper PMC11417369
± gives the standard deviation of the averaged measurements. The list shows a part of the results.

Test system: PfAP2-G AP2 domain (GST-tagged)
Assay: gcPBM binding intensity (ln(normalized median fluorescence intensity)); higher = stronger DNA binding
In short: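 Probes on an Agilent 4 × 180k array were primer-extended, double-stranded and 36 bp long, taken from intergenic genomic regions, with negative controls added. GST-tagged P. falciparum DNA-binding domains from E. coli, about 25 μg on average, were applied to the array for 1 h in 1× PBS containing 1% milk, 0.2 mg/ml BSA, 0.5% salmon testes DNA and 0.03% Triton X-100. Binding intensity, obtained after Alexa488 anti-GST antibody detection and a 488 nm scan, is the highest Masliner-normalised natural-log median intensity across replicate spots of either probe orientation.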

Compared with “AAGTATTATTTTTATGCATGTGAAGTGCAAAATAAA [TGCATGCA_site198]”, “TAAATATATATATATGTACACACTCCAATACATATA [CACACA_site8858]” is higher in “gcPBM binding intensity (ln)” value: 10.3 ± 0.28 for the first, 11.3 ± 0.71 for the second.

Compared with “TATATATATATTATATGTACATATTCCTATATATAC [XGTACX_site7071]”, “ATAAAGATTTTCCAAGCATGCCACATAGTGAGATAC [TGCATGCA_site594]” is lower in “gcPBM binding intensity (ln)” value: 11.3 ± 0.87 for the first, 10.2 ± 0.16 for the second.

“ATCATAAAAGTATACACACATACATACATATGTACA [CACACA_site2641]” and “TTATATATTTTTACCATACACACATATAATAAATAT [CACACA_site3721]” are within error of each other in “gcPBM binding intensity (ln)” value: 10.8 ± 0.45 for the first, 10.2 ± 0.17 for the second.

Compared with “GCACATATATACATACATACATACATACATATGTAT [TGCATGCA_negctrl_site95]”, “ACTTTATATTTTGAACGTACAAAAAAAAAATTATGT [XGTACX_site5588]” is higher in “gcPBM binding intensity (ln)” value: 10.2 ± 0.16 for the first, 11.3 ± 0.83 for the second.

Going from “AACCATTAATTCTCTACACACTTTTATTTTATTTAG [CACACA_site1769]” to “ATTATGTTAAAAAGGCGTACATGTTATAAGGTCCTA [XGTACX_site344]”, the “gcPBM binding intensity (ln)” value rises from 9.98 ± 0.014 to 11.7 ± 1.2.

“TATATATAAAGAGAAACATGCAAAATGTGAATATTC [TGCATGCA_site377]” and “AAGTATGCATTATATACACACATACATTTATATATT [CACACA_site4242]” are within error of each other in “gcPBM binding intensity (ln)” value: 9.86 ± 0.25 for the first, 9.94 ± 0.17 for the second.

“TTGGTTATACAACACATGCACACGTAAATAAATATT [CACACA_site3841]” and “TTGTTCTAATATATTGCACACGTAAAAATATAGGTA [CACACA_site8195]” are the same in “gcPBM binding intensity (ln)” value: 10.4 ± 0.22 for the first, 10.4 ± 0.3 for the second.

Compared with “TCCTTATAAATATATATATAATATATATATATATAT [CACACA_negctrl_site293]”, “TATATATATATTTATACACACATTAGTGTAGACATG [CACACA_site8964]” is higher in “gcPBM binding intensity (ln)” value: 9.565 ± 0.049 for the first, 10.1 ± 0.16 for the second.

First: ATATAAATAAACAACTTTGTTGGCCTTCCAAAATAT [CACACA_negctrl_site1181]
Second: TTGAAGAATAAATATGCACACATGCATATATTTTTA [CACACA_site5840]
The “gcPBM binding intensity (ln)” value of the first is higher: 10.1 ± 0.13 for the first, 9.69 ± 0.028 for the second.

“CTCAAAAAATTTCATAGTACTTTAAAATACTATAAT [XGTACX_site1939]” and “AATAAAAAAAAACGCACACACAAATATATTCCATTC [CACACA_site1224]” are within error of each other in “gcPBM binding intensity (ln)” value: 11 ± 0.72 for the first, 10.21 ± 0.099 for the second.

Going from “ATATAAATATTAATTACACACAAAAAAAAAAAAAAA [CACACA_site6671]” to “AATGGAAAAGGTAGTTGTACAACATGTTAAAATGGT [XGTACX_site1312]”, the “gcPBM binding intensity (ln)” value rises from 9.64 ± 0.38 to 11.5 ± 0.67.

Going from “TTTTGTTCTAATATGGGAACATAAATATTAAATATA [CACACA_negctrl_site1787]” to “TAATATAAAATGATAAATGAATGTGATCATTTTATA [CACACA_negctrl_site1034]”, the “gcPBM binding intensity (ln)” value falls from 10.2 ± 0.23 to 9.62 ± 0.042.

“ACATACTCAAATAGCACACACATAAATAAAAATGTA [CACACA_site3864]” and TATATATATAAATGAATGCACTTTAGAAAAAAGTAC are within error of each other in “gcPBM binding intensity (ln)” value: 10.2 ± 0.33 for the first, 10.8 ± 0.42 for the second.

“ATATATATTATAATAACACACATATATTATATTATA [CACACA_site406]” and “ATAAAATAAAACAACACACACGAATGTATAAATATA [CACACA_site4643]” are within error of each other in “gcPBM binding intensity (ln)” value: 9.88 ± 0.23 for the first, 10.04 ± 0.021 for the second.

“AATAAAATACAAAAATGTACAAATATAATATACATA [XGTACX_site279]” and “TAATAATATAAATATGCACACAAATTATTACCCAAA [CACACA_site8805]” are within error of each other in “gcPBM binding intensity (ln)” value: 10.7 ± 0.48 for the first, 10.3 ± 0.36 for the second.

“TAGATATATAGAATTACACACTTTTCTATAATATGA [CACACA_site6475]” and “ATTACAAAAATATATAAACACACAAATATAATATAT [CACACA_site8962]” are within error of each other in “gcPBM binding intensity (ln)” value: 9.58 ± 0.2 for the first, 9.88 ± 0.12 for the second.

Going from “ATATATATTTAAAACGCATGCCTTGTTATATATATA [TGCATGCA_site624]” to “CATATATATTTTATATGTACATATATATTTTATATA [XGTACX_site8665]”, the “gcPBM binding intensity (ln)” value rises from 9.655 ± 0.078 to 11.2 ± 0.73.

“ATATATATAATTTGTACACACAAATATGCATATATA [CACACA_site3432]” and “AAATAATTTATATATTGTACAAATATTAAATGCGAA [XGTACX_site3390]” are within error of each other in “gcPBM binding intensity (ln)” value: 11.3 ± 0.98 for the first, 10.8 ± 0.35 for the second.

Going from “TTTAAAAAAATGAAATAAAAAAAAAATAAAATAAAA [XGTACX_negctrl_site316]” to “TTTTTTTTTTTCAGTTGTACATTGGGAAAATATATA [XGTACX_site4416]”, the “gcPBM binding intensity (ln)” value rises from 9.53 ± 0.18 to 11 ± 0.61.

First: AGTCTGAATAAAATTACACACATATACCTATAAATA [CACACA_site6929]
Second: AGATATTTTTCTTAAGTACACACTAAATAGAAACTA [CACACA_site44]
The “gcPBM binding intensity (ln)” value of the first is lower: 9.975 ± 0.035 for the first, 11.3 ± 0.9 for the second.

First: TACCAAAAAAAAAAAAAAAATTAAATAAATATGAAA [TGCATGCA_negctrl_site383]
Second: ACATTTATATATAATTGTACCCTACATTCTCTTTTT [XGTACX_site189]
The “gcPBM binding intensity (ln)” value of the first is lower: 9.27 ± 0.11 for the first, 11.1 ± 0.57 for the second.

First: AAAAATATATAAACACGTACACACACATATATGTAT [XGTACX_site7436]
Second: ATATATATATATTATGTGCGCATATACCATTTTAAT [GTGCAC_site9575]
The “gcPBM binding intensity (ln)” value of the first is higher: 11.6 ± 0.88 for the first, 10.3 ± 0.23 for the second.
